# From the supplement of paper PMC9446081
# About 220 (0.56%) of roughly 39,000 compounds showed activity. This is one part of the list.
# System: Escherichia coli K-12 BW25113
# Test: relative growth (OD600 normalised to plate interquartile mean) (fraction); higher = less growth inhibition, active = 0.2 or less
# Conditions: 50 µM; LB; incubation time: overnight (16-24 h)
# 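Also: static incubation at 37 °C against the wild-type strain, values averaged over two biological replicates.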
row,Compound,relative growth
1,C[C@H]1CN([C@@H](C)CO)C(=O)Cc2cc(NC(=O)Nc3ccc(C(F)(F)F)cc3)ccc2O[C@@H]1CN(C)C(=O)Nc1ccc(F)cc1,inactive: 1.01
2,COc1ccccc1S(=O)(=O)N(C)C[C@H]1Oc2cc(Br)ccc2S(=O)(=O)N([C@H](C)CO)C[C@H]1C,inactive: 0.998
3,Cc1noc(C)c1NC(=O)N(C)C[C@@H]1Oc2c(NC(=O)c3ccncc3)cccc2C(=O)N([C@H](C)CO)C[C@@H]1C,inactive: 1
4,COc1ccc(S(=O)(=O)Nc2ccc3c(c2)C(=O)N([C@@H](C)CO)C[C@@H](C)[C@H](CN(C)Cc2ccc(Cl)c(Cl)c2)O3)cc1,inactive: 0.978
5,CC1OC(OC2C(O)CC(OC3C(O)CC(OC4CCC5(C)C(CCC6C5CCC5(C)C(C7=CC(=O)OC7)CCC65O)C4)OC3C)OC2C)CC(O)C1O (stereo not given),inactive: 1.06
6,O=C(O)c1cc(O)[nH]c(=O)c1,inactive: 1.02
7,CC(CCC(=O)O)C1CCC2C3C(=O)CC4CC(=O)CCC4(C)C3CC(=O)C12C (stereo not given),inactive: 1.07
8,C[C@H]1CN([C@@H](C)CO)C(=O)Cc2cc(NS(=O)(=O)c3ccc(Cl)cc3)ccc2O[C@@H]1CN(C)Cc1ccc(C(F)(F)F)cc1,inactive: 0.97
9,O=C(CS)NCCCCCCNC(=O)[C@H]1C[C@H]2C(=O)NCC(=O)N2[C@H]1c1ccc(O)cc1,inactive: 0.997
10,C[C@H]1COC(=O)[C@H](NC(=O)OCC2c3ccccc3-c3ccccc32)CC=CC[C@@H](CC(=O)NCCO)C(=O)N1,inactive: 1.02
11,[N-]=[N+]=Nc1ccccc1[C@H]1OC(c2ccc(OCCCO)cc2)=N[C@@]1(Cc1ccccc1)C(=O)NC[C@@H](O)CO,inactive: 0.998
12,C[C@@H]1CCCCO[C@H](CN(C)C(=O)CCC(F)(F)F)[C@@H](C)CN([C@@H](C)CO)C(=O)c2cc(NS(=O)(=O)c3ccccc3)ccc2O1,inactive: 0.89
13,C[C@@H]1CCCCO[C@H](CN(C)S(C)(=O)=O)[C@H](C)CN([C@@H](C)CO)C(=O)c2cc(NS(C)(=O)=O)ccc2O1,inactive: 1.03
14,C[C@H](CO)N1C[C@H](C)[C@H](CN(C)Cc2ccc(C(F)(F)F)cc2)Oc2ccc(NC(=O)CCCCCC(=O)Nc3ccccc3N)cc2CC1=O,inactive: 1.02
15,C[C@@H]1CCCCO[C@H](CN(C)Cc2ccc(C(F)(F)F)cc2)[C@H](C)CN([C@H](C)CO)C(=O)c2cc(NS(C)(=O)=O)ccc2O1,inactive: 0.988
16,Cc1cc(C)c(NC(=O)CN(CC(=O)O)CC(=O)O)c(C)c1Br,inactive: 0.973
17,CC(C)NC(=O)Nc1ccc2c(c1)C(=O)N([C@H](C)CO)C[C@H](C)[C@H](CN(C)Cc1ccc(C(F)(F)F)cc1)OCCCC[C@@H](C)O2,inactive: 0.976
18,Cc1noc(C)c1NC(=O)N(C)C[C@@H]1Oc2c(NS(=O)(=O)c3cn(C)cn3)cccc2C(=O)N([C@@H](C)CO)C[C@@H]1C,inactive: 0.995
19,COC(=O)c1c2oc(c1C(=O)OC)C(=O)N(C)Cc1cn(nn1)C[C@@H](C)NC(=O)N[C@H](COC(=O)NCCCCCC(=O)NO)CC2,inactive: 0.986
20,C[C@@H]1CN([C@H](C)CO)C(=O)c2cc(NC(=O)Nc3ccccc3)ccc2O[C@@H]1CN(C)Cc1ccc(-c2ccccc2)cc1,inactive: 1.02
21,CNC(=O)C(=O)Nc1cc(F)ccc1F,inactive: 1.01
22,C[C@H]1CN([C@@H](C)CO)C(=O)c2cc(NC(=O)c3ccncc3)ccc2O[C@@H]1CN(C)S(=O)(=O)c1cn(C)cn1,inactive: 0.978
23,Cc1cc2nc3c(=O)[nH]c(=O)nc-3n(C[C@H](O)[C@H](O)[C@H](O)COP(=O)(O)OP(=O)(O)OC[C@H]3O[C@@H](n4cnc5c(N)ncnc54)[C@H](O)[C@@H]3O)c2cc1C,inactive: 0.984
24,O=C(C[C@@H]1C[C@H]2c3cc(NC(=O)c4ccc5c(c4)OCO5)ccc3O[C@H]2[C@@H](CO)O1)NCCc1ccccc1,inactive: 0.972
25,Cn1cnc(CCNC(=O)C[C@@H]2CC[C@H]3[C@@H](COC[C@@H](O)CN3C(=O)Nc3ccc(C(F)(F)F)cc3)O2)c1,inactive: 0.946
26,C[C@@H]1CCCCO[C@@H](CN(C)S(=O)(=O)c2ccccc2)[C@H](C)CN([C@H](C)CO)C(=O)c2cc(NC(=O)Nc3ccccc3)ccc2O1,inactive: 1.02
27,COc1ccc(S(=O)(=O)Nc2ccc3c(c2)C(=O)N([C@H](C)CO)C[C@@H](C)[C@@H](CN(C)C(=O)Nc2ccc(C(F)(F)F)cc2)OCCCC[C@@H](C)O3)cc1,inactive: 1.01
28,C[C@H](CO)N1C[C@H](C)[C@H](CN(C)Cc2ccc3c(c2)OCO3)OCCCC[C@H](C)Oc2ccc(NS(=O)(=O)c3ccc(F)cc3)cc2C1=O,inactive: 0.995

row,Compound,relative growth
1,C[C@@H]1CN([C@H](C)CO)C(=O)Cc2cc(NC(=O)C3CCCCC3)ccc2O[C@@H]1CN(C)Cc1ccc(C(=O)Nc2ccccc2N)cc1,inactive: 1
2,COC(=O)c1c(CC[C@@H](CO)NC(=O)N[C@@H](C)Cn2cc(C3(O)CCCCC3)nn2)oc(C(C)=O)c1C(=O)OC,inactive: 0.987
3,CCCOC(=S)N[C@H]1OC[C@@H](O)[C@@H](O)[C@@H]1O,inactive: 0.988
4,COc1ccccc1CNC(=O)C[C@@H]1C[C@@H]2c3cc(NC(=O)Nc4ccc(C(F)(F)F)cc4)ccc3O[C@@H]2[C@@H](CO)O1,inactive: 0.992
5,C[C@H](CO)N1C[C@H](C)[C@H](CN(C)Cc2ccccc2)OCCCC[C@H](C)Oc2ccc(NS(=O)(=O)c3ccc(Cl)cc3)cc2C1=O,inactive: 0.99
6,C[C@H]1CN([C@@H](C)CO)C(=O)c2cccc(NC(=O)Nc3ccc(C(F)(F)F)cc3)c2O[C@@H]1CN(C)Cc1ccccc1,inactive: 0.774
7,C[C@@H]1CN([C@@H](C)CO)C(=O)c2cc(C#CC3(O)CCCC3)cnc2O[C@@H]1CN(C)S(=O)(=O)c1cccc(F)c1,inactive: 0.992
8,O=c1[nH]cc(COCc2ccccc2)c(=O)[nH]1,inactive: 0.98
9,C[C@@H]1CN([C@H](C)CO)S(=O)(=O)c2ccc(Br)cc2O[C@H]1CN(C)CC1CCOCC1,inactive: 1.02
10,Cc1noc(C)c1NC(=O)N(C)C[C@@H]1Oc2ccc(NS(=O)(=O)c3c(C)noc3C)cc2C(=O)N([C@H](C)CO)C[C@H]1C,inactive: 1.03
11,COc1ccc(S(=O)(=O)N2C[C@@H](O)COC[C@@H]3O[C@H](CC(=O)NCCCN4CCOCC4)CC[C@H]32)cc1,inactive: 1.01
12,C[C@@H]1CCCCO[C@@H](CN(C)S(=O)(=O)c2ccccc2)[C@H](C)CN([C@@H](C)CO)C(=O)c2cc(NC(=O)CCC(F)(F)F)ccc2O1,inactive: 0.982
13,Cc1noc(C)c1S(=O)(=O)Nc1cccc2c1O[C@H](CN(C)Cc1ccc(-c3ccccc3)cc1)[C@H](C)CN([C@H](C)CO)C2=O,inactive: 0.994
14,C/C1=C2/[N]([Co+][OH])[C@H]([C@H](CC(N)=O)[C@@]2(C)CCC(=O)NC[C@@H](C)OP(=O)(O)O[C@H]2[C@@H](O)[C@@H](n3cnc4cc(C)c(C)cc43)O[C@@H]2CO)[C@]2(C)N=C(/C(C)=C3N=C(/C=C4N=C1[C@@H](CCC(N)=O)C/4(C)C)[C@@H](CCC(N)=O)[C@]\3(C)CC(N)=O)[C@@H](CCC(N)=O)[C@]2(C)CC(N)=O,inactive: 1.12
15,C[C@@H]1CN([C@@H](C)CO)C(=O)c2cc(NC(=O)CCC(F)(F)F)ccc2O[C@@H](C)CCCCO[C@@H]1CN(C)C(=O)NC1CCCCC1,inactive: 0.989
16,COc1ccc(NC(=O)N(C)C[C@H]2Oc3ncc(Br)cc3C(=O)N([C@H](C)CO)C[C@@H]2C)cc1,inactive: 1.02
17,Cc1cccc(OC[C@@H](O)CN)c1,inactive: 0.98
18,CC(C)NC(=O)Nc1ccc2c(c1)C(=O)N([C@H](C)CO)C[C@H](C)[C@H](CN(C)C(=O)Nc1ccc(F)cc1)OCCCC[C@H](C)O2,inactive: 0.99
19,COCCOC(=O)N1C(=O)[C@@]2(c3ccccc31)[C@H](c1ccccc1OCCO)N1[C@H](c3ccccc3)[C@H](c3ccccc3)OC(=O)[C@H]1[C@@H]2C(=O)Nc1nc2ccccc2s1,inactive: 1.03
20,Cc1ccc(S(=O)(=O)N(C)C[C@@H]2OCCCC[C@@H](C)Oc3ccc(NC(=O)NC4CCCCC4)cc3C(=O)N([C@@H](C)CO)C[C@H]2C)cc1,inactive: 1
21,C[C@H]1CN([C@@H](C)CO)C(=O)c2cc(NC(=O)CCN3CCOCC3)ccc2O[C@@H]1CN(C)S(=O)(=O)c1ccc(F)cc1,inactive: 0.997
22,C[C@H]1CN([C@@H](C)CO)C(=O)c2cccc(NS(=O)(=O)c3cn(C)cn3)c2O[C@H]1CN(C)S(=O)(=O)c1ccc(F)cc1,inactive: 0.992
23,C[C@@H]1CN([C@H](C)CO)C(=O)CCCn2cc(nn2)CO[C@@H]1CN(C)S(=O)(=O)c1ccc(C#N)cc1,inactive: 1.01
24,COc1ccc(S(=O)(=O)N(C)C[C@H]2OCCCC[C@@H](C)Oc3ccc(NC(=O)Nc4ccc5c(c4)OCO5)cc3C(=O)N([C@@H](C)CO)C[C@@H]2C)cc1,inactive: 1.04
25,COc1ccc(C#Cc2ccc3c(c2)[C@]2(C(=O)N3)[C@H](c3ccc(OCCO)cc3)N3[C@H](c4ccccc4)[C@H](c4ccccc4)OC(=O)[C@H]3[C@@H]2C(=O)N2CCc3cc(OC)c(OC)cc3C2)cc1,inactive: 1.1
26,Cc1cccc(S(=O)(=O)N2C[C@H](O)COC[C@H]3O[C@H](CC(=O)NCc4ccc5c(c4)OCO5)CC[C@@H]32)c1,inactive: 0.996
27,C[C@@H]1CN([C@@H](C)CO)C(=O)c2cc(NC(=O)NC3CCCCC3)ccc2O[C@@H]1CN(C)Cc1ccc(C(F)(F)F)cc1,inactive: 0.91
